Measured values as given in the supplement of paper PMC10320760.
The data scatter; read single values as rough.

B1: Ydj1; a variant is named by its letters at X, in order (parent)
chain: MVKETKFYDILGVPVTATDVEIKKAYRKCALKYHPDKNPSEEAAEKFKEASAAYEILSDPEKRDIYDQFGEDGLSGAGGAGGFPGGGFGFGDDIFSQFFGAGGAQRPRGPQRGKDIKHEISASLEELYKGRTAKLALNKQILCKECEGRGGKKGAVKKCTSCNGQGIKFVTRQMGPMIQRFQTECDVCHGTGDIIDPKDRCKSCNGKKVENERKILEVHVEPGMKDGQRIVFKGEADQAPDVIPGDVVFIVSERPHKSFKRDGDDLVYEAEIDLLTAIAGGEFALEHVSGDWLKVGIVPGEVIAPGMRKVIEGKGMPIPKYGGYGNLIIKFTIKFPENHFTSEENLKKLEEILPPRIVPAIPKKATVDECVLADFDPAKYNRTRASRGGANYDSDEEEQGGEGVQCXXX

Variants of: B1
Assay: enrichment factor, frequency at 37 °C / frequency at 25 °C (thermotolerance selection) (ratio); higher = more growth at 37 °C, higher likelihood of farnesylation
Details: with Saccharomyces cerevisiae ydj1Δ (yWS304); selective temperature 37 °C; reference temperature 25 °C
Description: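 Pooled library of all 8,000 Ydj1-CXXX C-terminal motif variants (native CASQ replaced by C + three variable residues, one codon per amino acid) expressed from a CEN plasmid in S. cerevisiae ydj1Δ (yWS304). The library was grown in SC-Ura liquid to A600 ~2 (~8 generations) at permissive 25 °C or selective 37 °C. Reads from 8 and 7 replicates were pooled and variants counted by NGS. Enrichment factor = frequency at 37 °C / frequency at 25 °C, with a +1 correction; it reports Ydj1-dependent thermotolerance, used as a read-out of farnesylation by yeast FTase.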
ENG showed an enrichment factor of 0.595. In the case of ENF, the enrichment factor is reported as 1.78. END showed an enrichment factor of 0.228. With ENC the enrichment factor was 1.53. ENE showed an enrichment factor of 0.251. Variant ENA has an enrichment factor of 1.52. With CNF the enrichment factor was 0.202. Work on CNG yielded an enrichment factor of 1.52. Work on CNA yielded an enrichment factor of 1.79. With CND the enrichment factor was 0.346. CNE showed an enrichment factor of 0.405. For CNC, the enrichment factor was 0.467. Work on LMY yielded an enrichment factor of 3.38. Work on LMW yielded an enrichment factor of 0.887. CMY was tested, and the enrichment factor was 1.35. CMV showed an enrichment factor of 1.03. For CMW, the enrichment factor was 0.772. With MMY the enrichment factor was 1.04. With MMW the enrichment factor was 0.759. Variant VNC has an enrichment factor of 1.34. VNF showed an enrichment factor of 1.52. VNE gave an enrichment factor of 1.59. VND showed an enrichment factor of 1.12. In the case of VNA, the enrichment factor is reported as 1.96. KMY gave an enrichment factor of 1.49. In the case of KMW, the enrichment factor is reported as 1.82. Work on IMY yielded an enrichment factor of 3.3. In the case of IMW, the enrichment factor is reported as 1.75. Variant GMY has an enrichment factor of 1.52. For GMW, the enrichment factor was 1.38. With AMW the enrichment factor was 0.938. Variant AMY has an enrichment factor of 1.96. Work on WNF yielded an enrichment factor of 0.633. For WND, the enrichment factor was 0.485. In the case of WNA, the enrichment factor is reported as 1.46. For WNE, the enrichment factor was 1.58. Work on WNC yielded an enrichment factor of 0.181. GND gave an enrichment factor of 0.228. For GNG, the enrichment factor was 0.211. GNF was tested, and the enrichment factor was 0.903. Variant GNA has an enrichment factor of 0.613. In the case of GNC, the enrichment factor is reported as 1.3. GNE gave an enrichment factor of 0.269. QMY was tested, and the enrichment factor was 2.12. QMV showed an enrichment factor of 3.64. In the case of QMW, the enrichment factor is reported as 1.16. FNC gave an enrichment factor of 0.188. For FNA, the enrichment factor was 1.7. For FNG, the enrichment factor was 1.31. FNE was tested, and the enrichment factor was 0.151. In the case of FNF, the enrichment factor is reported as 1.86. Work on FND yielded an enrichment factor of 0.331. QNF was tested, and the enrichment factor was 2.05. In the case of QND, the enrichment factor is reported as 0.181. Variant QNC has an enrichment factor of 1.69. QNG gave an enrichment factor of 1.02. QNE showed an enrichment factor of 0.221. For QNA, the enrichment factor was 1.82. TNE gave an enrichment factor of 0.275. TNA gave an enrichment factor of 1.71. TNF gave an enrichment factor of 1.71. Work on TNC yielded an enrichment factor of 0.879. In the case of TNG, the enrichment factor is reported as 1.41. TND gave an enrichment factor of 0.647. Variant WMV has an enrichment factor of 1.51. WMW gave an enrichment factor of 0.923. WMY showed an enrichment factor of 1.36. Variant PMW has an enrichment factor of 1.02. In the case of PMV, the enrichment factor is reported as 1.05. PMY showed an enrichment factor of 0.913. HNG gave an enrichment factor of 1.12. In the case of HNE, the enrichment factor is reported as 0.292. For HND, the enrichment factor was 0.366. With HNF the enrichment factor was 2.11. In the case of HNC, the enrichment factor is reported as 2.26. Variant HNA has an enrichment factor of 1.99. RNC was tested, and the enrichment factor was 1.28. RND was tested, and the enrichment factor was 0.932. RNA showed an enrichment factor of 1.35. Work on RNE yielded an enrichment factor of 0.486. For RNG, the enrichment factor was 1.6. With RNF the enrichment factor was 2.42. For SMY, the enrichment factor was 2.73. SMV gave an enrichment factor of 1.31. Variant SMW has an enrichment factor of 1.06. Work on EMW yielded an enrichment factor of 1.5. With EMY the enrichment factor was 1.59. For PNG, the enrichment factor was 0.945. PNA gave an enrichment factor of 1.87. Work on PNE yielded an enrichment factor of 0.156. Variant PND has an enrichment factor of 0.164. Variant PNC has an enrichment factor of 1.81. PNF showed an enrichment factor of 1.71. YNC gave an enrichment factor of 1.92. YNF was tested, and the enrichment factor was 1.81. With YNE the enrichment factor was 0.304. With YND the enrichment factor was 1.11. With YNA the enrichment factor was 2.01. TMW gave an enrichment factor of 0.684. Variant TMY has an enrichment factor of 1.3. TMV gave an enrichment factor of 1.84. HMY showed an enrichment factor of 2.24. Work on HMW yielded an enrichment factor of 1.82. YMW was tested, and the enrichment factor was 1.62. In the case of YMV, the enrichment factor is reported as 1.99. Work on YMY yielded an enrichment factor of 3.59. MNC was tested, and the enrichment factor was 0.704. Work on MNF yielded an enrichment factor of 1.73. In the case of MNG, the enrichment factor is reported as 1.22. For MND, the enrichment factor was 0.209. MNE was tested, and the enrichment factor was 0.191. MNA was tested, and the enrichment factor was 1.74. Work on INF yielded an enrichment factor of 2.01. INA gave an enrichment factor of 1.31. INC gave an enrichment factor of 0.763. Work on INE yielded an enrichment factor of 0.736. IND showed an enrichment factor of 1.05. ING showed an enrichment factor of 1.12. Work on LNC yielded an enrichment factor of 0.264. Work on LNA yielded an enrichment factor of 1.77. LNF was tested, and the enrichment factor was 1.67. In the case of LNE, the enrichment factor is reported as 0.797. In the case of LND, the enrichment factor is reported as 0.896. Work on LNG yielded an enrichment factor of 1.71. Work on NNA yielded an enrichment factor of 1.52. NNC gave an enrichment factor of 1.66. In the case of NND, the enrichment factor is reported as 0.26. NNG was tested, and the enrichment factor was 0.573. Variant NNF has an enrichment factor of 1.97. With NNE the enrichment factor was 0.189. In the case of AND, the enrichment factor is reported as 0.538. ANE was tested, and the enrichment factor was 0.638. ANA gave an enrichment factor of 1.28. Work on ANF yielded an enrichment factor of 1.71. For ANC, the enrichment factor was 1.31. With ANG the enrichment factor was 1.38. DNA gave an enrichment factor of 0.199. DND gave an enrichment factor of 0.182. With DNG the enrichment factor was 0.142. With DNC the enrichment factor was 0.319. With DNE the enrichment factor was 0.155. DNF was tested, and the enrichment factor was 0.209. With NMW the enrichment factor was 1.95. For NMV, the enrichment factor was 1.56. NMY gave an enrichment factor of 2.38. VMV showed an enrichment factor of 0.908. With VMW the enrichment factor was 3.09. VMY was tested, and the enrichment factor was 1.24. Variant KNE has an enrichment factor of 0.167. KNG was tested, and the enrichment factor was 0.67. KNA was tested, and the enrichment factor was 1.47. Variant KNC has an enrichment factor of 1.44. KND gave an enrichment factor of 0.923. With KNF the enrichment factor was 1.72. RMW showed an enrichment factor of 0.579. RMY was tested, and the enrichment factor was 1.51. RMV was tested, and the enrichment factor was 1.37. With DMW the enrichment factor was 1.49. DMY was tested, and the enrichment factor was 2. Variant SNC has an enrichment factor of 1.01. Variant SNA has an enrichment factor of 1.48. SNG was tested, and the enrichment factor was 1.41. For SND, the enrichment factor was 0.222. In the case of SNF, the enrichment factor is reported as 2.47. With SNE the enrichment factor was 0.205. FMY was tested, and the enrichment factor was 2.32. For FMW, the enrichment factor was 1.51.
